Measurements taken from PubChem BioAssay AID1159614 (National Center for Advancing Translational Sciences (NCATS), 2016).
About 65 (0.1%) of roughly 45,000 compounds were called active. Calls come from the whole dose curve; as a rule, active = well fitted activation curve with a large enough effect; inconclusive = small, poorly fitted or top-dose-only effect; inactive = no such curve, though single readings can be large or run the other way. The list shows a part of the results.

biological target: Galactocerebrosidase (Homo sapiens) (UniProt P54803); assay: A Novel Cell-Based Assay to Identify Small Molecules for B -Galactocerebrosidase; details: 145M-Twi-hGALC-G270D cells, HMU-beta-Gal fluorescence, 48 h; series mostly up to 57.5 µM; activation: at the top concentration; note: 0% is about no effect; nearly all actives have a fitted effect of over 65% in size
Outline: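 qHTS, 1536-well; 145M-Twi-hGALC-G270D cells (WT line also made) in DMEM/F12 + 10% FBS; compound incubation on live cells; HMU-β-gal 0.1 mM final, pH 5.2, NaTC; carbonate stop; fluorescence increase = enhanced residual activity.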

UniProt P54803, sequence (P54803 whole entry, looked up): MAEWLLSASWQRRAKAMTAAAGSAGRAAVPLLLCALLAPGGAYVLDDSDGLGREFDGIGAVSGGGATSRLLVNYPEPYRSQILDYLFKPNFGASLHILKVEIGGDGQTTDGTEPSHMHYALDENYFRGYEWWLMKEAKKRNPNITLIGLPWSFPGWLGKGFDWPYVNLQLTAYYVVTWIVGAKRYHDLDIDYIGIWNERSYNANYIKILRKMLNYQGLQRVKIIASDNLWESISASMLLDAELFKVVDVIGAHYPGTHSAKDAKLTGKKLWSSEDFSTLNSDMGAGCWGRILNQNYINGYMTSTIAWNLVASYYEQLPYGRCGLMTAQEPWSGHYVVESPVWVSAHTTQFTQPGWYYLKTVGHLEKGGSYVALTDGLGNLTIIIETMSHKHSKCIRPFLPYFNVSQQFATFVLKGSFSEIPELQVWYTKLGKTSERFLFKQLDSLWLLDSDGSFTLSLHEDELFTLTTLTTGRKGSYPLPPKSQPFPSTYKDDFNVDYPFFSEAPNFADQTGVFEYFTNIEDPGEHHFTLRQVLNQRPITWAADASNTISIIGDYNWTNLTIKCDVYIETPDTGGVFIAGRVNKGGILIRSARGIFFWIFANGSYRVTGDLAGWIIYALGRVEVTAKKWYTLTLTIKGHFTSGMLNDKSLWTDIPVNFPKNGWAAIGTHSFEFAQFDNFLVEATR

activation, inactive:
O=C(c1cccn1-c1nnc(N2CCCC2)s1)N1CCN(c2ccc(F)cc2)CC1 -16.3%
Cc1cccc(OCC(=O)NCc2ccc3c(c2)CCN3C(=O)c2ccc(Cl)cc2)c1 -6.05%
CCOc1ccc(NC(=O)c2c(NC(=O)c3ccncc3)sc3c2CCC(C(C)(C)C)C3)cc1 (stereo not drawn) -5.87%
COc1ccc(-c2nnc(SCC(=O)Nc3ccc(C)c(Cl)c3)nc2-c2ccc(OC)c(OC)c2)cc1OC -21.8%
O=C(c1ccc(F)cc1)N1CCN(CCc2ccncc2)CC1 11.8%
COc1ccc(NC(=O)c2ccco2)cc1NC(=O)COc1cc(C)ccc1C(C)C -19.6%
CC(=O)N1c2ccccc2CC1C(=O)N1CCN(c2cc(Cl)ccc2C)CC1 (stereo not drawn) -17.4%
COc1ccc(Cl)cc1S(=O)(=O)N1CCC(c2ccncc2)CC1 -13.5%
COc1cccc(/C=C/c2nc3ccccc3c(=O)n2-c2ccc(C)c(C)c2)c1OC -0.582%
Cc1nc(N)c(S(=O)(=O)c2ccccc2)c(Nc2ccc(Br)cc2)n1 -12.1%
O=C(Nc1ccc(F)cc1)Nc1nnc(SCC(=O)N2CCCCC2)s1 -8%
Cc1cccc(CNC(=O)CN2CC(C)Sc3ccccc32)c1 (stereo not drawn) -21.6%
O=C(Cn1cc(SCc2ccc(Cl)cc2)c2ccccc21)N1CCCC1 5.15%
CC(=O)Nc1ccc(NC(=O)CN2C(=O)CCc3cc(S(=O)(=O)N4CCCCC4)ccc32)cc1 -7.17%
COc1ccc(C)cc1NS(=O)(=O)c1cc(Br)cc2c1N(C(C)=O)C(C)C2 (stereo not drawn) -26.6%
Cc1c(C(=O)N(Cc2cccc(Cl)c2)Cc2ccco2)oc2ccccc12 -3.16%
Cc1c(Cl)cccc1-n1nnc(-c2nc(-c3ccc4c(c3)OCO4)no2)c1C -16.2%
COc1cccc(NC2=CC(c3ccc(C(C)C)cc3)N(c3cccc(OC)c3)C2=O)c1 (stereo not drawn) -9.36%
COc1ccc(NC(=O)c2nn(C)c3c2CSc2ccc(C)cc2-3)cc1OC -28.8%
COC(=O)c1sccc1S(=O)(=O)N(CC(=O)Nc1cc(C)cc(C)c1)c1ccc(Cl)cc1 16%
COc1ccc(-n2c(SCC(=O)NCc3ccccc3)nc3ccsc3c2=O)cc1 3.32%
COc1ccc(CNC(=O)CN2C(=O)COc3ccc(S(=O)(=O)N4CCCCCC4)cc32)cc1 -0.164%
COCCOC(=O)Cn1nnc2sc(-c3ccccc3)cc2c1=O -10.5%
CCOC(=O)c1ccc(NC(=O)CC2Nc3cc(C)c(C)cc3NC2=O)cc1 (stereo not drawn) -23.5%
COc1ccc(CNC(=O)c2ccc(CNS(=O)(=O)c3ccc(OC)cc3)cc2)cc1 -14.9%
COCCCNC(=O)c1ccc(Cn2c(=O)c3ccccc3n(Cc3ccc(C)cc3)c2=O)cc1 -14.4%
Cc1nn(S(=O)(=O)c2ccc(C(C)C)cc2)c(C)c1S(=O)(=O)N1CCCCC1 -7.82%
CCOc1ccc(-n2c(=O)c3c4c(sc3n(CC(=O)NCCCOC)c2=O)CCCCC4)cc1 15.7%
CCc1cccc(C)c1NS(=O)(=O)c1ccc2c(c1)NC(=O)C(C)C(=O)N2 (stereo not drawn) -15.6%
CC(=O)N1CCCc2cc(S(=O)(=O)N3CCCC(C(=O)N4CCN(c5ccccc5F)CC4)C3)ccc21 (stereo not drawn) -18.9%
Cc1ccc2c(c1)-c1c(cnn1CC(=O)N1CCN(c3cccc(C(F)(F)F)c3)CC1)CO2 -11.4%
COc1ccc(CC(=O)NCC(c2ccc(N(C)C)cc2)N2CCOCC2)cc1OC (stereo not drawn) -14.5%
CCCCNC(=O)c1cnn2c(C)c(Cc3c(C)cc(C)cc3C)c(C)nc12 -27.5%
Cc1ccccc1OCc1ccc(-c2nc(C#N)c(N3CCCCC3)o2)o1 -7.13%
COc1cc(NC(=O)Cn2c(=O)n(-c3ccccc3)c(=O)c3c4c(sc32)CCCC4)cc(OC)c1 -9.73%
CC(C)COc1ccc(C(=O)Nc2scc(-c3ccc(Br)cc3)c2C(=O)OC(C)C)cc1 -26.2%
CSc1ccc(CNC(=O)c2ccc3c(c2)N(C)C(=O)C2CCCCN32)cc1 (stereo not drawn) -23%
CCOC(=O)c1cc2c(=O)n3ccccc3nc2n(Cc2ccco2)c1=NC(=O)c1ccc(OC)cc1 -4.26%
CCN(CC)c1ccc2cc(-c3nc(-c4ccccc4)no3)c(=O)oc2c1 -1.86%
O=C(NCc1cccc(Cl)c1)C1CCN(c2nn3cc(-c4ccc(F)cc4)nc3s2)CC1 -20.7%
COc1ccc(-c2cn3nc(N4CCCC(C(=O)Nc5cc(Cl)ccc5OC)C4)sc3n2)cc1 (stereo not drawn) -9.57%
Cc1cc(C)c(NC(=O)Cn2nnc(C(=O)NCc3cccs3)c2N)c(C)c1 -12.2%
Cc1ccc(CNC(=O)c2c(-c3ccc(F)cc3F)noc2C)o1 -2.74%
CCOc1ccc(-n2nc(CO)c(C(=O)NCC(c3ccccc3)c3ccccc3)n2)cc1 -10.9%
COc1ccc(C(=O)COC(=O)CCCC(=O)Nc2ccc(C(C)=O)cc2)cc1 -10.8%
COc1ccc(CCN(C)CCCN2CCc3cc(OC)c(OC)cc3CC2=O)cc1OC -15.1%
CNS(=O)(=O)c1cn(CC(=O)N2CCN(c3ccc(Cl)cc3)CC2)cc1S(=O)(=O)NC -9.79%
Cc1nc2cccnc2n1C1CCN(C(=O)Nc2ccccc2C(F)(F)F)CC1 -17.5%
O=c1ccc2cc(S(=O)(=O)NCc3ccc(Cl)cc3)ccc2[nH]1 -16.3%
O=C(NCc1ccccc1)c1cccc(N2CCCS2(=O)=O)c1 -13.4%
COc1ccc(-c2cn3nc(SCC(=O)Nc4ccccc4F)ccc3n2)cc1 -4.15%
COC(=O)c1scc(-c2ccc(C)cc2)c1S(=O)(=O)Nc1ccc(NC(C)=O)cc1 -13%
Cc1cc(C)c(NC(=O)COCc2cc(-c3cccs3)on2)c(C)c1 -7.48%
Cc1cccc(OCC(=O)Nc2cccc(C(=O)OCc3cc(=O)n4c(C)csc4n3)c2)c1 -3.16%
O=C(CSc1nccn1Cc1ccc(F)cc1)NCc1ccccc1 -4.14%
COc1ccc(S(=O)(=O)N(CC(=O)NCCSc2ccccc2)c2ccc(Cl)cc2)cc1 -34.8%
COc1ccc(-n2ncc(C(=O)NCc3ccc4c(c3)OCO4)c2C2CCN(C(=O)OC(C)(C)C)CC2)cc1 0.403%
CCc1cccc(N2C(=O)CSC23C(=O)N(Cc2ccccc2F)c2ccccc23)c1 (stereo not drawn) -45.1%
CCN(CC)c1ccc(NC(=O)CN2C(=O)c3cccnc3Oc3ccccc32)c(C)c1 4.17%
Cc1ccc(CCNC(=O)c2ccc3c(c2)N(Cc2cc(C)ccc2C)C(=O)c2ccccc2S3=O)cc1 (stereo not drawn) -4.76%
Cc1ccc(/C=C/c2onc(C)c2S(=O)(=O)N2CCC(C(=O)NCc3ccco3)CC2)cc1 3.19%
CCOC(=O)c1cccc(NS(=O)(=O)c2cc(Br)cc3c2N(C(=O)C2CC2)CC3)c1 -6.2%
COc1ccc2c(c1)NC(c1ccc(F)cc1)=NC(c1ccc(F)cc1)=N2 -4.36%
COc1ccc(CNC(=O)CCS(=O)(=O)c2cc(Br)cc3c2N(C(=O)C2CC2)CC3)cc1 -8.34%
COC(=O)c1ccc(OCC2c3cc(OC)c(OC)cc3CCN2C(=O)c2cccc(C)c2)cc1 (stereo not drawn) -21.8%
COc1ccc(NC(=O)C2CCN(C3=NS(=O)(=O)C(c4ccc(C)c(C)c4)=C3C)CC2)cc1OC -9.3%
COc1cccc(N2CCN(C(=O)CN3CCSc4ccc(S(=O)(=O)N(C)C)cc43)CC2)c1 -18.7%
COc1ccc(Nc2ncnc3onc(C)c23)cc1Cl -27.2%
CCCSCCCNC(=O)C1CCCN(C(=O)c2cnn(-c3ccccc3)c2-n2cccc2)C1 (stereo not drawn) -12.1%
O=C(Cn1nc(Cc2cccnc2)c2ccccc2c1=O)N1CCN(c2ccc(F)cc2)CC1 -8.69%
COc1cccc(CNC(=O)Cn2c(=O)n3nc(-c4cccc(C)c4)nc3c3ccccc32)c1 -11.4%
CCCCN(Cc1ccccc1)S(=O)(=O)c1ccc2c(c1)CCN2C(=O)C1CCC1 -4.23%
Cc1ccc(NC(=O)[C@H](CSCc2ccccc2)N2Cc3ccccc3C2=O)cc1 -11.2%
COc1ccc(OC)c(CNC(=O)CCS(=O)(=O)c2ccc3c(c2)oc(=O)n3C)c1 -23.9%
CCN(C(=O)C(NS(=O)(=O)c1cccc2nsnc12)c1ccccc1)c1ccccc1 (stereo not drawn) -15.2%
COc1ccc(-c2ccnc3c2c(=O)n(C)c(=O)n3C)cc1OC -12.7%
COCCCNC(=O)CCCN1C(=O)CCn2nc(-c3cn(C)c4ccccc34)cc21 -6.67%
Cc1ccc(C)c(N2CCN(CCCNc3ncnc4onc(-c5ccc(Cl)cc5)c34)CC2)c1 -11.9%
CC1CCN(S(=O)(=O)c2cccc(C(=O)NC3CCS(=O)(=O)C3)c2)CC1 (stereo not drawn) -20.7%
Cc1cc(C)c(NC(=O)CN2C(=O)c3cccnc3Oc3ccc(Cl)cc32)c(C)c1 -6.61%
Cc1cc(Nc2ccc(C)c(Cl)c2)n2nc(-c3ccccc3)nc2n1 -1.68%
Cc1ccc(C(=O)N2c3nc(-c4ccco4)nn3C3(CCCCC3)[C@@H]3CCCC[C@@H]32)cc1 -7.17%
COc1ccc(OC)c(CNC(=O)c2cc(=O)[nH]c3ccc(S(=O)(=O)N4CCCCC4C)cc23)c1 (stereo not drawn) 4.03%
Cc1ccc2cccc(NC(=O)c3ccc(-c4ccc(Cl)cc4Cl)o3)c2n1 -8.48%
Cc1csc2nc(-c3cccc(NC(=O)c4ccc(S(N)(=O)=O)cc4)c3)cn12 -13.8%
COc1ccc(-c2nc3cc(NC(=O)COc4ccc(F)cc4)ccc3o2)cc1 -14.4%
O=C(CCNS(=O)(=O)c1cccc2nsnc12)Nc1ccc(F)cc1 0.307%
CCOC(=O)N1CCC(NC(=O)c2cnn(-c3ccccc3)c2C2CCN(C(=O)OC(C)(C)C)CC2)CC1 5.71%
COc1ccc(S(=O)(=O)NCCc2sc(-c3ccccc3)nc2C)cc1OC -26.3%
CCc1ccccc1NC(=O)CSc1ncc2c(n1)-c1ccccc1N(C)S2(=O)=O -11.3%
O=C(NCCC1=CCCCC1)c1ccc2c(c1)ncn2-c1cccc(Cl)c1 -11.4%
COc1cccc(NC(=O)Cn2c(=O)n(Cc3nc(-c4ccccc4)no3)c(=O)c3ccccc32)c1 -17%
CCOc1ccc(-c2cc(C)n3nc(C(=O)Nc4cc(Cl)ccc4O)cc3n2)cc1 -4.3%
